In the supplement of paper PMC3334620:
Over roughly 33,000 sequences, “E-score (-0.5 to 0.5)” has its median near -0.043; the highest 2% begin near 0.37. The list shows a part of the results.

Each sequence was assayed against T1, Upc2 (UniProt Q12151) (assay: PBM E-score (8-mer binding enrichment) (E-score (-0.5 to 0.5)); higher = stronger / more preferred TF binding; most listed sequences are background and not binding sites). Conditions: protein concentration: 200 nM; construct: GST-full length.
T1 sequence: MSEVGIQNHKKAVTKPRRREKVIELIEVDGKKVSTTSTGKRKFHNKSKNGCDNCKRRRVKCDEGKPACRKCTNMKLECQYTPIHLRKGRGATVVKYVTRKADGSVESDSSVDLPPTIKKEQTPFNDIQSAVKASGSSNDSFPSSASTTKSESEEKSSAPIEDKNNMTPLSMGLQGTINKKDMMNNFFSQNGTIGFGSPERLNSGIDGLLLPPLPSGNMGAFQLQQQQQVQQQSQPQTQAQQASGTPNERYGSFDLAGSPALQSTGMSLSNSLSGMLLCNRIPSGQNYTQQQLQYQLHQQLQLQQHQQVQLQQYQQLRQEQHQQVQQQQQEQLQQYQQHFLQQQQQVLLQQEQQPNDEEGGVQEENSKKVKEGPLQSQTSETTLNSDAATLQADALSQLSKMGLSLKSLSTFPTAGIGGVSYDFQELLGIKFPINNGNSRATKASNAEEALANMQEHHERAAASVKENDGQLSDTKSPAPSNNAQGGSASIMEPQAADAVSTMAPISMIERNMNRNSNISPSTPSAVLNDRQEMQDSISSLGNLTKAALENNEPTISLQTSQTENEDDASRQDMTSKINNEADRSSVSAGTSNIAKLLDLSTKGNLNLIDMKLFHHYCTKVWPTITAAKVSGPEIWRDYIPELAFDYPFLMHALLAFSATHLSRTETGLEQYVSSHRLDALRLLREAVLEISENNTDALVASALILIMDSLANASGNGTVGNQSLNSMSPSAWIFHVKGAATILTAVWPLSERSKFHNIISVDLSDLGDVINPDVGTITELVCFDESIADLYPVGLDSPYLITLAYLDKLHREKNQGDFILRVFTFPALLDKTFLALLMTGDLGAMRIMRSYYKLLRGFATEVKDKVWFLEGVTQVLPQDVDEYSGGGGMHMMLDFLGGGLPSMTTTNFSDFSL
Outline: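 GST-tagged yeast TFs (full-length or DNA-binding domain) were made by PURExpress in vitro transcription/translation and applied at about 100-200 nM to universal all-10-mer Agilent arrays. The arrays were made double-stranded by primer extension, on fresh or once-stripped slides. Bound protein was detected with fluorescent anti-GST, and scans were normalised with masliner. Each ungapped eight-base word, pooled with its reverse complement, received an E-score (modified Wilcoxon-Mann-Whitney statistic) from the Universal PBM Analysis Suite.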
In the case of AACTTATG, the “PBM E-score” value is reported as -0.0673.
For CGTAATTC, the “PBM E-score” value was 0.254.
In the case of AGTATGTC, the “PBM E-score” value is reported as -0.0423.
GCCCAAAC was tested, and the “PBM E-score” value was 0.186.
In the case of GAAATATC, the “PBM E-score” value is reported as 0.0721.
ACCTACTC was tested, and the “PBM E-score” value was -0.168.
With AGCCGGCC the “PBM E-score” value was -0.254.
In the case of AAGTCAGA, the “PBM E-score” value is reported as -0.229.
For CACGGTCA, the “PBM E-score” value was -0.185.
AAGCTTGA was tested, and the “PBM E-score” value was -0.144.
With AGGTAACT the “PBM E-score” value was -0.107.
In the case of CCTCAAGA, the “PBM E-score” value is reported as -0.315.
For AAAGAGAA, the “PBM E-score” value was -0.0251.
In the case of CCCTTTCC, the “PBM E-score” value is reported as -0.242.
With ACCAACAA the “PBM E-score” value was -0.0689.
With GTATGCCA the “PBM E-score” value was -0.0323.
With ACTTTCCC the “PBM E-score” value was -0.277.
For CTTGTTTA, the “PBM E-score” value was 0.0235.
For AACGCGGT, the “PBM E-score” value was 0.102.
CAATCTTA was tested, and the “PBM E-score” value was 0.065.
CCGTGATC was tested, and the “PBM E-score” value was -0.0603.
With ACCTTGCA the “PBM E-score” value was 0.00498.
For ACCAGCGG, the “PBM E-score” value was -0.301.
With TCAACGAA the “PBM E-score” value was 0.249.
In the case of ATGGCCAG, the “PBM E-score” value is reported as -0.163.
For AGCGAAAA, the “PBM E-score” value was 0.0608.
AAGTAATA was tested, and the “PBM E-score” value was 0.112.
In the case of CCAAGAAC, the “PBM E-score” value is reported as 0.0408.
In the case of AGTTCAAT, the “PBM E-score” value is reported as -0.0947.
ACCTAATG was tested, and the “PBM E-score” value was -0.304.
For CCGCCTAC, the “PBM E-score” value was 0.025.
GTCCACAA was tested, and the “PBM E-score” value was -0.215.
With GCACACAC the “PBM E-score” value was 0.0452.
In the case of CCCAAAAA, the “PBM E-score” value is reported as -0.157.
In the case of TAATCGTA, the “PBM E-score” value is reported as 0.42.
In the case of TCCTGAGA, the “PBM E-score” value is reported as -0.207.
With AGAGGATC the “PBM E-score” value was -0.0201.
ACGATCCG was tested, and the “PBM E-score” value was 0.303.
In the case of ATTGCGTG, the “PBM E-score” value is reported as -0.00571.
ACCACAAG was tested, and the “PBM E-score” value was -0.345.
For CGGTCCGC, the “PBM E-score” value was -0.0599.
With ATGTCGAG the “PBM E-score” value was -0.208.
With GGTCGAGA the “PBM E-score” value was -0.0156.
In the case of TTAGCTAA, the “PBM E-score” value is reported as -0.00737.
ACTACAAA was tested, and the “PBM E-score” value was 0.0136.
In the case of GCGTACAC, the “PBM E-score” value is reported as 0.33.
ATCGGATG was tested, and the “PBM E-score” value was 0.111.
For ATTAGATC, the “PBM E-score” value was -0.00471.
GCAAGCTA was tested, and the “PBM E-score” value was -0.109.
In the case of CACCTACA, the “PBM E-score” value is reported as -0.172.
For AACTGACT, the “PBM E-score” value was 0.00051.
For GATTCTGA, the “PBM E-score” value was 0.082.
With ATCTTTAC the “PBM E-score” value was 0.191.
In the case of CAATACTG, the “PBM E-score” value is reported as -0.0693.
With CTTGCAGC the “PBM E-score” value was -0.167.
AACGTAAG was tested, and the “PBM E-score” value was 0.0726.
For CACAACAC, the “PBM E-score” value was 0.0167.
CAGTCCGG was tested, and the “PBM E-score” value was -0.0759.
With ATTGCTCC the “PBM E-score” value was -0.0818.
For CTCCATTC, the “PBM E-score” value was -0.176.
With CACAGTAC the “PBM E-score” value was 0.0225.
For AAATCATT, the “PBM E-score” value was -0.134.
In the case of CTACGGTC, the “PBM E-score” value is reported as 0.109.
For CCCTTTTC, the “PBM E-score” value was -0.0146.
In the case of AGAATCCC, the “PBM E-score” value is reported as 0.11.
With CTCGGGGC the “PBM E-score” value was -0.168.
For GGGCAAAA, the “PBM E-score” value was -0.0612.
ACGGGCAT was tested, and the “PBM E-score” value was 0.28.
With GAACGCTA the “PBM E-score” value was -0.0474.
GCAGGGAC was tested, and the “PBM E-score” value was -0.165.
GCTAGAGC was tested, and the “PBM E-score” value was -0.141.
With GTATAGCA the “PBM E-score” value was 0.377.
CCTTCCAA was tested, and the “PBM E-score” value was -0.216.
For CATAGGCG, the “PBM E-score” value was -0.075.
In the case of TACACCTA, the “PBM E-score” value is reported as 0.0945.
ACGCGGTA was tested, and the “PBM E-score” value was 0.142.
With GTTCAGTA the “PBM E-score” value was 0.249.
In the case of GCATATAC, the “PBM E-score” value is reported as 0.251.
With CCGGTGCC the “PBM E-score” value was -0.0464.
ACCTAGCC was tested, and the “PBM E-score” value was -0.17.
AGGCTGTG was tested, and the “PBM E-score” value was -0.00172.
In the case of ATGCCATC, the “PBM E-score” value is reported as 0.066.
For AACCCGGA, the “PBM E-score” value was -0.00233.
AAAGATTT was tested, and the “PBM E-score” value was -0.0111.
CATTCGCC was tested, and the “PBM E-score” value was -0.147.
In the case of CGTTATCC, the “PBM E-score” value is reported as 0.0197.
For CAACTCTG, the “PBM E-score” value was -0.0835.
AACAGACC was tested, and the “PBM E-score” value was 0.0367.
CTCGGATC was tested, and the “PBM E-score” value was 0.141.
CCTGACCG was tested, and the “PBM E-score” value was 0.08.
With CGCGTAAC the “PBM E-score” value was 0.202.
ATTAAAGC was tested, and the “PBM E-score” value was -0.0686.
For TCACTCCA, the “PBM E-score” value was -0.0952.
With CAGCGCTC the “PBM E-score” value was -0.201.
In the case of CGGTCAGA, the “PBM E-score” value is reported as -0.126.
With CTTCGCGA the “PBM E-score” value was 0.161.
With AAAAGGGT the “PBM E-score” value was -0.105.
In the case of TCGGATAA, the “PBM E-score” value is reported as 0.336.
With TCTTATAA the “PBM E-score” value was 0.301.
ATCGCCGA was tested, and the “PBM E-score” value was 0.0596.
In the case of AGTCCCCA, the “PBM E-score” value is reported as -0.289.
In the case of ATCAGCCA, the “PBM E-score” value is reported as -0.122.
In the case of TACGGGGA, the “PBM E-score” value is reported as 0.36.
In the case of AGGCCATC, the “PBM E-score” value is reported as -0.0459.
In the case of AGCAGTTC, the “PBM E-score” value is reported as -0.0967.
AAATGGAC was tested, and the “PBM E-score” value was -0.0861.
TCAGGTAA was tested, and the “PBM E-score” value was -0.24.
In the case of CGTTATAA, the “PBM E-score” value is reported as 0.164.
For GTACGGAA, the “PBM E-score” value was 0.377.
